# The campaign covered roughly 270,000 compounds. About 620 (0.23%) were called active. The shares of active, inactive and inconclusive entries below differ from those in the screen. The call rests on the fitted dose curve; in most records, active means well fitted inhibition curve with a large enough effect in the polarisation, with a control signal flat (not every such curve was filed as active); inconclusive means small, poorly fitted or top-dose-only effect, or effect the other way, or a change in a side signal; inactive means no such curve, though single readings can be large or run the other way; the % refers to the polarisation. Where the call is inconclusive, the potency comes from a doubtful curve fit. A note “side channel” means that the fit belongs to a control or component signal, not to the main read-out.
# Molecular target: Menin (Homo sapiens) (UniProt O00255)
# Chain of UniProt O00255 (O00255 whole entry, looked up): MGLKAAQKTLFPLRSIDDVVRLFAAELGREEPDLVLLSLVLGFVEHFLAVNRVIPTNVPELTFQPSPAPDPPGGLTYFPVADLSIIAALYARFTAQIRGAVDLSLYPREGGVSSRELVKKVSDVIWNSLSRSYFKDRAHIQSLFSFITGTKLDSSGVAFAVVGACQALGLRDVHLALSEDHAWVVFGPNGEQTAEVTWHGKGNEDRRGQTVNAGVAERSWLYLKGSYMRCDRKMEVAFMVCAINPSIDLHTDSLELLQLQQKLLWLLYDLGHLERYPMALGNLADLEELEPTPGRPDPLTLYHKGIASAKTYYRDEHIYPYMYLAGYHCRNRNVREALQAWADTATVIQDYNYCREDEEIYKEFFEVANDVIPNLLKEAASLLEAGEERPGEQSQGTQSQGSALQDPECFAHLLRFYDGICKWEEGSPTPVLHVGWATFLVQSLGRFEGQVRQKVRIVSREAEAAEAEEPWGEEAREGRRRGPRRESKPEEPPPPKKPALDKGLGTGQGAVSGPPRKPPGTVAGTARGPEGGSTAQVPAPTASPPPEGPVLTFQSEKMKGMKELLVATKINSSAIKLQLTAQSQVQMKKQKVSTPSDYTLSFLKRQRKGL
# Assay: qHTS Assay for Inhibitors Targeting the Menin-MLL Interaction in MLL Related Leukemias: Competition With Texas Red Labeled MLL-derived Mutant Peptide; on FP activity change, negative = inhibition: % of control where 0% means no effect
# Settings: fluorescence polarization; FP activity change, negative = inhibition: at 61.6 µM (top of the series)
# Potency means the concentration at half of the fitted maximal effect; tags describe the fitted curve by direction and shape or compound fluorescence and quenching.
SMILES,Potency,"FP activity change, negative = inhibition"
CC(=O)N1CCCN(Cc2nc(C3(c4ccc(C)cc4)CCCC3)no2)CC1,"inconclusive: 35.5 µM [inhibitor, partial curve]",
CCn1c(C)cc(C=C2C(=O)c3ccccc3C2=O)c1C,"inconclusive: 17.8 µM [quencher, side channel, partial curve]",
Cn1c(=O)c(C(=O)NNC(=O)c2cccc(Cl)c2)c(O)c2ccccc21,"inconclusive: 25.1 µM [quencher, side channel, single point]",
O=C(COc1ccccc1[N+](=O)[O-])N/N=C/c1ccc(O)c([N+](=O)[O-])c1,"inconclusive: 17.8 µM [quencher, side channel, partial curve]",
COc1cc(/C=N/NC(=O)c2cc(O)cc(O)c2)ccc1OC(=O)c1ccccc1,"inconclusive: 7.08 µM [quencher, side channel, full curve]",
CCCCC(=O)Nc1c(-c2ccc(OC)c(OC)c2)c(=O)c2ccccc2n1C,,inactive: 4.65%
CN(C(=O)c1cc2nc(-c3ccco3)cc(C(F)(F)F)n2n1)C1CCCCC1,"inconclusive: 39.8 µM [quencher, side channel, single point]",
COc1cccc(/C=N/Nc2ncc(C(F)(F)F)cc2Cl)c1O,"inconclusive: 22.4 µM [quencher, side channel, single point]",
O=S(=O)(c1cccc2nsnc12)N1CCCC1,"inconclusive: 35.5 µM [inhibitor, partial curve]",
Cc1ccccc1Nc1nnc(SCc2cc(=O)n3ccsc3n2)s1,"inconclusive: 2 µM [inhibitor, full curve]",
COc1ccc(Cn2c(=S)[nH]c3ccccc3c2=O)cc1,"inconclusive: 31.6 µM [fluorescent, side channel, single point]",
Cc1ccc(S(=O)(=O)/N=C(\N)Nc2nc(C)c3cc(C)ccc3n2)cc1,"inconclusive: 2 µM [fluorescent, side channel, partial curve]",
Cc1cc([N+](=O)[O-])nn1CCCC(=O)Nc1cc(Oc2ccc(F)cc2)cc([N+](=O)[O-])c1,"inconclusive: 11.2 µM [quencher, side channel, partial curve]",
COc1ccc(C(=O)Nc2cccc(OC(=O)c3ccco3)c2)cc1,"inconclusive: 44.7 µM [quencher, side channel, partial curve]",
Cc1ccc(S(=O)(=O)CC(=O)Nc2nc(-c3ccccc3)cs2)cc1,"inconclusive: 22.4 µM [inhibitor, single point]",
O=S(=O)(Nc1ccc(-c2nnc(SCc3ccc(Cl)cc3)o2)cc1)c1ccccc1,"inconclusive: 31.6 µM [quencher, side channel, single point]",
